# Data taken from PubChem BioAssay AID488969 (Vanderbilt High Throughput Screening Facility, 2010).
# The full ranking holds about 110,000 compounds; the median of “z-score” is about -0.1, and the highest 2% start at about 2. The list shows a part of the results.
# Biological target: Metabotropic glutamate receptor 8 (Rattus norvegicus) (UniProt P70579)
# Assay: mGluR8 Gi/Go-coupled signaling modulation – cell-based, rat, thallium flux, HTS, primary screen (AID 488969)
# Settings: HEK293 rat mGluR8, GIRK (G protein-gated inwardly rectifying potassium channel) thallium flux, FluoZin2; at 10 µM; stronger effect = higher value; submaximal glutamate (EC20) added with thallium
# UniProt P70579, sequence (P70579 whole entry, looked up): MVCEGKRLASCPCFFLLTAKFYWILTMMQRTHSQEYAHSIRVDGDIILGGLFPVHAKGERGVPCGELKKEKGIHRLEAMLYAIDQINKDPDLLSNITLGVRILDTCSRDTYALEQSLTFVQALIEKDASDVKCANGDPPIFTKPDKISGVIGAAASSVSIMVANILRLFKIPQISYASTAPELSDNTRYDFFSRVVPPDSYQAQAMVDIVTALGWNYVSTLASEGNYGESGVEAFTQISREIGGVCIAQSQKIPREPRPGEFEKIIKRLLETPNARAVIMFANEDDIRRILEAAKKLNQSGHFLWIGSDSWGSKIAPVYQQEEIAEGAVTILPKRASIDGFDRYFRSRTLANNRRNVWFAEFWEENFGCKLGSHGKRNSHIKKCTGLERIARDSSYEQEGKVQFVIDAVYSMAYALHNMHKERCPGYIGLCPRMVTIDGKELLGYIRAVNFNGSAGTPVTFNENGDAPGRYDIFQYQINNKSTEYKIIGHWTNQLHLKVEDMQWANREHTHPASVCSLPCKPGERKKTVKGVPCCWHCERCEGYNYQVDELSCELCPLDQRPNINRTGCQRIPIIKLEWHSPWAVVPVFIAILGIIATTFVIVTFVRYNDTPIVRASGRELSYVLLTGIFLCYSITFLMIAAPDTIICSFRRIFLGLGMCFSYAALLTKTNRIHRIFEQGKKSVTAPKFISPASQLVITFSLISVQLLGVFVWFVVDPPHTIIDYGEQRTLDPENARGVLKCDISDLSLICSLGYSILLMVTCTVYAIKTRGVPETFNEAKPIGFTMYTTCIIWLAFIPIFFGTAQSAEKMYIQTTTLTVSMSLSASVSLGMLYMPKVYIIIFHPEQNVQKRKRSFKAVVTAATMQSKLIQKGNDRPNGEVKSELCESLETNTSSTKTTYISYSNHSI
row,Compound,z-score
1,COc1ccc(CNC(=O)C2CC(c3ccccc3[N+](=O)[O-])=NO2)cc1 (stereo not given),-0.076
2,CCC(=O)Nc1ccc2nc(C3CC3)n(Cc3ccccc3)c(=O)c2c1,0.23
3,CC(=O)c1cccc(NS(=O)(=O)c2cc(OCC(N)=O)c(C)cc2Cl)c1,-0.271
4,Nc1cc(N)nc(SCC(=O)N2CCN(C(=O)c3ccco3)CC2)n1,-0.174
5,Nc1nc(SCc2ccc([N+](=O)[O-])cc2)c2ncn(C3OC(CO)C(O)C3O)c2n1 (stereo not given),2.28
6,CC(=O)/C(C(=N)N1CCN(c2cccc(Cl)c2)CC1)=C(\C)O,-0.0545
7,Cc1ccccc1C(=O)N/N=C/c1ccc([N+](=O)[O-])s1,2.95
8,O=C(c1ccco1)c1cn(CC(=O)N2CCCc3ccccc32)c2ccccc12,-0.386
9,CC(=O)c1cc2c(cc1NC(=O)Nc1cccc(Cl)c1)OCCO2,-1.57
10,CC(C)CCN1C(=O)CCC1(C)C(=O)NC1CCCCCC1 (stereo not given),-0.212
11,OCCN(CCO)CC(O)COc1ccc2c(c1)OCO2 (stereo not given),1.26
12,CCOC(=O)C1=C(C)OC(N)=C(C#N)C1c1c(C)nn(-c2ccc(C)cc2)c1Cl (stereo not given),-1.07
13,Cc1ccc(-c2nnn(CC(=O)N(CCO)C(C(=O)NC(C)(C)C)c3ccncc3)n2)cc1 (stereo not given),0.15
14,CCN(CC(=O)NCCc1ccccc1)S(=O)(=O)c1ccc(C)cc1,-0.528
15,Cc1nnc(NC(=O)CCSc2ccccc2)s1,2.67
16,c1ccc(SCc2nc3ccccc3[nH]2)cc1,-0.0589
17,COc1ccc(C2=NOC3(CC(=O)N(c4ccc(F)cc4)C3=O)C2)c(OC)c1 (stereo not given),1.54
18,NC(=O)CN1CCOCCOCCN(CC(N)=O)CCOCC1,-0.21
19,O=C1CCC(=O)N1c1nc2nc(-c3ccccc3)cc(=O)n2[nH]1,-0.309
20,Cc1nc(-c2ccc(NS(C)(=O)=O)cc2)cs1,-0.203
21,CCOc1ccc(NC(=O)Cn2nc(-c3ccccc3Cl)n(CC)c2=S)cc1,-0.441
22,CC(=O)Nc1ccc2nc(-c3ccncc3)[nH]c2c1,-0.0987
23,Cc1ccc(S(=O)(=O)NC(C)C(=O)Nc2ccccc2C(=O)N2CCCC2)cc1 (stereo not given),-1.26
24,CC1(C)CC(N(Cc2cccs2)C(=O)c2ccco2)CCO1 (stereo not given),-0.0734
25,O=C(CN1CCN(c2ncccn2)CC1)N(Cc1ccccc1)c1ccc(F)cc1,-1.45
26,N#Cc1nc(COc2ccccc2)oc1N1CCCCCC1,-0.881
27,COCc1cc(=O)[nH]c(Nc2nc(C)c3cc(OC)ccc3n2)n1,-0.401
28,CN(C)c1cccc(C(=O)OCC(=O)NCC2CCCO2)c1 (stereo not given),-0.266

row,Compound,z-score
1,Cc1ccc2nc(/C(C#N)=C/c3cn[nH]c3-c3ccc(F)cc3)[nH]c2c1,0.00106
2,CCC1C(=O)N=C(SCC(=O)Nc2cccc3ccccc23)NC1=O (stereo not given),0.296
3,COC(=O)c1ccc(-n2nc(C(F)(F)F)c3c2-c2ccoc2CC3)cc1,-0.167
4,O=C(CN(c1ccc(Cl)cc1)S(=O)(=O)c1ccccc1)N1CCN(c2ccccc2)CC1,-0.37
5,Cc1cc(C)nc(SCC(=O)c2c(N)n(C)c(=O)n(C)c2=O)n1,-0.282
6,COc1ccccc1NC(=O)N1c2ccc(F)cc2CCC1C (stereo not given),1.43
7,CCN(CC)CC(=O)Nc1ccc2c(c1)Nc1ccccc1CC2,2.49
8,Cc1cc(=O)n(C(NC(=O)c2ccccc2)C(=O)c2ccccc2)cn1 (stereo not given),-0.888
9,Cc1cc(=O)[nH]c(SCC(=O)O)c1C#N,-0.0372
10,CC1(C)CC(=O)CC(C)(C)N1OC(=O)c1ccncc1,0.285
11,O=C(O)c1ccc(N=NN2CCCCCC2)cc1,-0.183
12,COC(=O)N1N=C(c2ccccc2)CC1(O)C(F)(F)F (stereo not given),-0.0474
13,O=C(Nc1c(Cl)cccc1Cl)c1ccc(-c2ccccc2)cc1,-0.141
14,CCN1/C(=C2\OC(=S)N(C)C2=O)Sc2ccccc21,0.0145
15,O=[N+]([O-])c1ccccc1/C=N/Nc1nccnc1Cl,0.0122
16,C=CCNC(=O)C1CC=CCC1C(=O)O (stereo not given),0.472
17,Cn1c(=O)n(-c2ccc(Cl)cc2)c(=O)c2c3c(sc21)COC(C)(C)C3,-0.582
18,CCOC(=O)c1ccccc1NC(=O)c1cn(-c2ccc(C)c(C)c2)c(=O)c2ccccc12,-0.151
19,O=c1oc2c(CN3CCCCC3)c(O)ccc2c2c1CCCC2,-0.148
20,Cn1c(SCc2ccccc2Cl)nc(C(F)(F)F)cc1=O,-0.0528
21,CCCCNc1cc(C)oc(=O)c1C(C)=O,0.297
22,Cc1cc(C)cc(NC(=O)COc2ccc3c(C)c(Cc4ccccc4)c(=O)oc3c2)c1,-0.277
23,CCc1ccc(CN2CCN(C(=O)c3cccc(OC)c3OC)CC2)cc1,-0.484
24,CC1(C)c2ssc(=S)c2-c2ccccc2N1C(=O)CSC1=NCCS1,-0.279
25,Cc1cccc(NC(=O)c2cc(Cl)sc2Cl)c1C,0.0762
26,O=C(c1ccccc1-c1ccccc1)N1CCCC1,-0.25
27,CCOC(=O)/C=C(/C)N1N=C(c2ccc(OC)cc2)CC1c1cccc([N+](=O)[O-])c1 (stereo not given),0.0194
